Laboratory results: the supplement of paper PMC3334620
In all, about 33,000 sequences were measured (“E-score (-0.5 to 0.5)”: median about -0.012, highest 2% from about 0.29 on). The list shows a part of the results.

The sequences below were run against T1, Ybr033w (UniProt P38073) (assay: PBM E-score (8-mer binding enrichment) (E-score (-0.5 to 0.5)); higher = stronger / more preferred TF binding; most listed sequences are background and not binding sites). Conditions: protein concentration: 200 nM; construct: GST-full length.
T1 sequence: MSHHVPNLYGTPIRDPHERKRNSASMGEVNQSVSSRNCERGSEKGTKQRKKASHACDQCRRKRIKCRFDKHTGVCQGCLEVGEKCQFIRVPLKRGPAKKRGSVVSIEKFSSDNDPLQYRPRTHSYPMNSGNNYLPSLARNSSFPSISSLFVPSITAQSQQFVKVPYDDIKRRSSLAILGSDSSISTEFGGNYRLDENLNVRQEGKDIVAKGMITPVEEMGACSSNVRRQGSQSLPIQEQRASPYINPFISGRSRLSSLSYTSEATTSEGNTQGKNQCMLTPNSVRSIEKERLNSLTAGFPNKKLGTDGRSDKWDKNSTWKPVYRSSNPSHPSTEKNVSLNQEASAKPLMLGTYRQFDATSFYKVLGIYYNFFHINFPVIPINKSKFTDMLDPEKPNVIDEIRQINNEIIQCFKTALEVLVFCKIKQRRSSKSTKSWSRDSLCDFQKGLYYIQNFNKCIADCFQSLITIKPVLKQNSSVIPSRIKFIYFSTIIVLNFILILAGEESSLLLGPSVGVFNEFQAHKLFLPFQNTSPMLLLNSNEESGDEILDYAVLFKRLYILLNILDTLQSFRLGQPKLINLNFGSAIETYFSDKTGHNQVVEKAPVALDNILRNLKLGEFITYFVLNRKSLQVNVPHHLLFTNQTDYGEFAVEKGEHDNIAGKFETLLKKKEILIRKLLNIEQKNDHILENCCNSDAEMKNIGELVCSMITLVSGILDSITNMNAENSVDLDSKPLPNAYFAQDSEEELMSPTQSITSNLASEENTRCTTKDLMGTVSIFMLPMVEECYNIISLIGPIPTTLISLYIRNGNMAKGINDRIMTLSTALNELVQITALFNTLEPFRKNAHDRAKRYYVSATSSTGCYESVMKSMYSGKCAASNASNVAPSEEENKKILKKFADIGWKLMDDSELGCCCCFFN
In short: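 Yeast transcription factors carrying a GST tag, as full-length proteins or DNA-binding domains, were produced by PURExpress in vitro transcription/translation. About 100-200 nM protein was applied to universal all-10-mer Agilent arrays, double-stranded by primer extension on fresh or once-stripped slides. Bound protein was detected with fluorescent anti-GST, and scans were normalised with masliner. The Universal PBM Analysis Suite gave each ungapped eight-base word, pooled with its reverse complement, an E-score, a modified Wilcoxon-Mann-Whitney statistic.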

Which “PBM E-score” value does the source give for AAAGATCT here?
The value was -0.0762.

Which “PBM E-score” value does the source give for AAACCTTT here?
The value was 0.171.

With CCAGTTCC as the sequence, how does the “PBM E-score” value read?
Its value is -0.139.

TATAGCCA was tested. Which “PBM E-score” value did it give?
Its value is 0.0762.

For CGGCAGTC, which “PBM E-score” value is on record?
The value was 0.0207.

With CGGCGGCA as the sequence, how does the “PBM E-score” value read?
The value was -0.317.

With CTTTGAAA as the sequence, how does the “PBM E-score” value read?
The value was 0.135.

Which “PBM E-score” value does the source give for TCAGTCCA here?
The value was -0.323.

How did the “PBM E-score” value turn out when GCTGTCCA was run?
Its value is 0.102.

Which “PBM E-score” value does the source give for AAGCTAGT here?
The value was 0.205.

With AACCAATT as the sequence, how does the “PBM E-score” value read?
Its value is 0.204.

AACCGCTA was tested. Which “PBM E-score” value did it give?
The value was 0.0756.

CGTCAAAC was tested. Which “PBM E-score” value did it give?
The value was -0.0527.

Which “PBM E-score” value does the source give for ATCAATAA here?
Its value is 0.321.

With AAGTCGAA as the sequence, how does the “PBM E-score” value read?
Its value is -0.0313.

How did the “PBM E-score” value turn out when CGCTGCGC was run?
Its value is -0.191.

For GACGGCGC, which “PBM E-score” value is on record?
Its value is -0.192.

How did the “PBM E-score” value turn out when AACTAGAT was run?
Its value is 0.167.

With AGCGCAAA as the sequence, how does the “PBM E-score” value read?
The value was 0.101.

For GAACATCC, which “PBM E-score” value is on record?
The value was 0.303.

CCCATACC was tested. Which “PBM E-score” value did it give?
The value was -0.0137.

How did the “PBM E-score” value turn out when ACGAAGCC was run?
The value was -0.0377.

For GACCACGA, which “PBM E-score” value is on record?
The value was -0.0132.

For ATGACGTG, which “PBM E-score” value is on record?
The value was -0.16.

With CACGCGTA as the sequence, how does the “PBM E-score” value read?
Its value is -0.0691.

How did the “PBM E-score” value turn out when AATGCTGC was run?
The value was 0.0406.

CTGTACCA was tested. Which “PBM E-score” value did it give?
The value was -0.041.

For ACACTAAG, which “PBM E-score” value is on record?
The value was -0.0377.

For TCTATGCA, which “PBM E-score” value is on record?
The value was 0.0398.

For GTGCTAGA, which “PBM E-score” value is on record?
The value was 0.0408.

Which “PBM E-score” value does the source give for GCAGTGAC here?
The value was -0.118.

GGCATTCA was tested. Which “PBM E-score” value did it give?
The value was 0.00051.

How did the “PBM E-score” value turn out when CAAGGGGG was run?
The value was -0.378.

Which “PBM E-score” value does the source give for CCGTACAC here?
The value was -0.139.

With ATCTGGAA as the sequence, how does the “PBM E-score” value read?
The value was 0.214.

How did the “PBM E-score” value turn out when AAGTGTGA was run?
The value was -0.0329.

How did the “PBM E-score” value turn out when GCCACGCA was run?
Its value is -0.208.

For CGTCCTAC, which “PBM E-score” value is on record?
The value was -0.168.

With TCCTTACA as the sequence, how does the “PBM E-score” value read?
Its value is 0.13.

How did the “PBM E-score” value turn out when AGTTACAA was run?
The value was 0.124.

With ATAGTAAT as the sequence, how does the “PBM E-score” value read?
Its value is 0.346.

With AGACCAGG as the sequence, how does the “PBM E-score” value read?
The value was -0.14.

For GGACAGCC, which “PBM E-score” value is on record?
The value was -0.0224.

How did the “PBM E-score” value turn out when GGCCGACA was run?
The value was -0.176.

Which “PBM E-score” value does the source give for CGCAGCCC here?
The value was -0.264.

For GCGCTAGC, which “PBM E-score” value is on record?
The value was -0.161.

Which “PBM E-score” value does the source give for AACCCTCA here?
Its value is -0.017.

With CGGCTTCC as the sequence, how does the “PBM E-score” value read?
Its value is -0.229.

How did the “PBM E-score” value turn out when AGCGGCCG was run?
The value was 0.00919.

Which “PBM E-score” value does the source give for CGGCTGAA here?
The value was -0.0403.

With ATCAATCA as the sequence, how does the “PBM E-score” value read?
Its value is 0.132.

Which “PBM E-score” value does the source give for CACATTGG here?
The value was -0.0498.

How did the “PBM E-score” value turn out when CCTTCGGC was run?
The value was -0.366.

Which “PBM E-score” value does the source give for GCAAGACC here?
The value was -0.159.

For CCGTGTGC, which “PBM E-score” value is on record?
The value was -0.074.

For TAGGTTGA, which “PBM E-score” value is on record?
The value was 0.0109.

For ATCTGGAG, which “PBM E-score” value is on record?
Its value is 0.0486.

How did the “PBM E-score” value turn out when GTGTATTA was run?
The value was 0.28.

How did the “PBM E-score” value turn out when GGGAGAAA was run?
Its value is 0.0625.

How did the “PBM E-score” value turn out when CCGGCTAG was run?
Its value is -0.265.

For GGCCACCC, which “PBM E-score” value is on record?
The value was -0.214.

For CAGGTTGC, which “PBM E-score” value is on record?
The value was -0.112.

With AGTGCACT as the sequence, how does the “PBM E-score” value read?
The value was 0.00842.

With AGGCTGCA as the sequence, how does the “PBM E-score” value read?
The value was -0.0505.

How did the “PBM E-score” value turn out when ACTGAACT was run?
Its value is 0.076.

For GACCTATA, which “PBM E-score” value is on record?
The value was 0.189.

How did the “PBM E-score” value turn out when AGGAATAT was run?
The value was 0.353.

With ATTAGGCA as the sequence, how does the “PBM E-score” value read?
The value was -0.0629.

CGAGACGA was tested. Which “PBM E-score” value did it give?
The value was -0.124.

Which “PBM E-score” value does the source give for GGCGCCCC here?
The value was -0.351.

With AAACCGGC as the sequence, how does the “PBM E-score” value read?
The value was 0.00941.

Which “PBM E-score” value does the source give for CCTATCAC here?
The value was -0.0714.

How did the “PBM E-score” value turn out when GCTTGCAC was run?
Its value is -0.119.

TACAGGTA was tested. Which “PBM E-score” value did it give?
Its value is 0.115.

With CTGTCTCC as the sequence, how does the “PBM E-score” value read?
The value was 0.00722.

With ACGCTCCT as the sequence, how does the “PBM E-score” value read?
The value was 0.0451.

Which “PBM E-score” value does the source give for AAATCACT here?
Its value is 0.243.

For AGCGCATC, which “PBM E-score” value is on record?
Its value is 0.0587.

How did the “PBM E-score” value turn out when TGCTGAAA was run?
The value was 0.12.

With ATGCCATG as the sequence, how does the “PBM E-score” value read?
Its value is -0.0545.

For CATCGCGG, which “PBM E-score” value is on record?
Its value is -0.106.

AACATCTC was tested. Which “PBM E-score” value did it give?
The value was 0.134.

How did the “PBM E-score” value turn out when GTAACCTA was run?
Its value is 0.171.

With GCTCCAAC as the sequence, how does the “PBM E-score” value read?
The value was 0.0804.

Which “PBM E-score” value does the source give for ACGATCAG here?
The value was 0.0882.

How did the “PBM E-score” value turn out when TGAAAGCA was run?
The value was 0.148.

With CTGAGCCA as the sequence, how does the “PBM E-score” value read?
The value was -0.228.

For AACGAAAC, which “PBM E-score” value is on record?
Its value is 0.0982.

Which “PBM E-score” value does the source give for GGGCCCTA here?
Its value is -0.344.

For GGCGTCAC, which “PBM E-score” value is on record?
Its value is -0.1.

Which “PBM E-score” value does the source give for AAACTTTG here?
Its value is 0.204.

How did the “PBM E-score” value turn out when ATGTTAAG was run?
The value was 0.0474.

Which “PBM E-score” value does the source give for GGTCTGGA here?
The value was -0.0823.

GAAATCCC was tested. Which “PBM E-score” value did it give?
Its value is -0.0561.

Which “PBM E-score” value does the source give for ACGAGCTA here?
The value was -0.105.

How did the “PBM E-score” value turn out when CCTAAAAC was run?
The value was -0.0442.

With AGGATTAC as the sequence, how does the “PBM E-score” value read?
Its value is 0.106.

With ATCGCCAC as the sequence, how does the “PBM E-score” value read?
Its value is -0.145.

Which “PBM E-score” value does the source give for CTTCCACA here?
The value was 0.0508.

Which “PBM E-score” value does the source give for TACTCATA here?
Its value is 0.0798.

Which “PBM E-score” value does the source give for CAGGCGCC here?
Its value is -0.286.

How did the “PBM E-score” value turn out when AAGCGCAC was run?
Its value is -0.0871.

How did the “PBM E-score” value turn out when GCCATAAC was run?
The value was -0.207.

CTTGATAC was tested. Which “PBM E-score” value did it give?
The value was 0.0764.

Which “PBM E-score” value does the source give for GGACACCA here?
Its value is -0.0887.

For GAGCACTC, which “PBM E-score” value is on record?
Its value is -0.0143.

With GCTTTACA as the sequence, how does the “PBM E-score” value read?
The value was -0.034.

ACATAGGG was tested. Which “PBM E-score” value did it give?
Its value is 0.00674.

For GATAAACA, which “PBM E-score” value is on record?
Its value is 0.298.

For CGGATCAG, which “PBM E-score” value is on record?
The value was -0.11.
